In the supplement of paper PMC9151546:
Single values are uncertain, as repeats are few or missing.

Assays:
[1] = test system: CHO-K1; assay: micronucleus frequency (% of nucleated events); higher = more micronuclei (genotoxic)
[2] = test system: CHO-K1; assay: hypodiploid nuclei frequency (% of nucleated events); higher = more hypodiploid events (aneugenic)
Experimental: (§1)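 Flow-cytometric in vitro micronucleus assay (Litron MicroFlow) in CHO-K1 cells in 96-well plates, 19 concentrations (4.5-200 µM, n=1 per concentration). Without S9, cells were exposed for 24 h and sampled at 48 h. With Aroclor 1254-induced rat liver S9, cells were exposed for 3-4 h and sampled at 27-28 h. Read-outs are %MN and %hypodiploid nuclei relative to nucleated events, and relative survival as the nuclei-to-bead ratio versus the 1% DMSO vehicle control (x100).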

[3] = test system: CHO-K1; assay: relative survival (nuclei to bead ratio vs DMSO control) (% of vehicle control); higher = more surviving cells
Experimental: as §1
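Wherever hypodiploid nuclei frequency (% of nucleated events) is given: hypodiploid nuclei gated on a flow cytometer with 488 nm excitation after SYTOX Green staining, cultures at 37 °C, positive controls vinblastine without S9 and cyclophosphamide with S9.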
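Wherever micronucleus frequency (% of nucleated events) is given: cells lysed with nuclei stained by SYTOX Green, then micronucleus-gated events counted against nucleated events by flow cytometry with 488 nm excitation.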
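Wherever relative survival (nuclei to bead ratio vs DMSO control) is given: Lysed-cell nuclei stained with SYTOX Green and counted against counting beads by flow cytometry at 488 nm excitation, with vinblastine (no S9) and cyclophosphamide (plus S9) as positive controls.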

Cc1ccc(Cl)cc1 [4-Chlorotoluene]
Conditions	hypodiploid nuclei frequency, [2] [%]	micronucleus frequency, [1] [%]	relative survival, [3]
concentration: 4.5 (µM), S9 metabolic activation: with S9, exposure time: 3-4 hours	0.34	0.94	98.6
concentration: 4.5 (µM), S9 metabolic activation: without S9, exposure time: 24 hours	0.38	1.54	89.5
concentration: 5.63 (µM), S9 metabolic activation: with S9, exposure time: 3-4 hours	0.14	1.12	86.3
concentration: 5.63 (µM), S9 metabolic activation: without S9, exposure time: 24 hours	0.52	1.02	88.6
concentration: 7.04 (µM), S9 metabolic activation: with S9, exposure time: 3-4 hours	0.32	1.18	78.5
concentration: 7.04 (µM), S9 metabolic activation: without S9, exposure time: 24 hours	0.52	2.04	85.6
concentration: 8.8 (µM), S9 metabolic activation: with S9, exposure time: 3-4 hours	0.38	1.4	109
concentration: 8.8 (µM), S9 metabolic activation: without S9, exposure time: 24 hours	0.56	1.88	88.9
concentration: 11 (µM), S9 metabolic activation: with S9, exposure time: 3-4 hours	0.2	1.08	101
concentration: 11 (µM), S9 metabolic activation: without S9, exposure time: 24 hours	0.68	1.52	94.9
concentration: 13.7 (µM), S9 metabolic activation: with S9, exposure time: 3-4 hours	0.18	1.08	95.1
concentration: 13.7 (µM), S9 metabolic activation: without S9, exposure time: 24 hours	0.48	1.9	84.2
concentration: 17.2 (µM), S9 metabolic activation: with S9, exposure time: 3-4 hours	0.26	1.42	77.7
concentration: 17.2 (µM), S9 metabolic activation: without S9, exposure time: 24 hours	0.66	1.58	91.1
concentration: 21.5 (µM), S9 metabolic activation: with S9, exposure time: 3-4 hours	0.28	1.18	112
concentration: 21.5 (µM), S9 metabolic activation: without S9, exposure time: 24 hours	0.44	1.46	85
concentration: 26.8 (µM), S9 metabolic activation: with S9, exposure time: 3-4 hours	0.14	0.64	117
concentration: 26.8 (µM), S9 metabolic activation: without S9, exposure time: 24 hours	0.6	1.42	94.9
concentration: 33.6 (µM), S9 metabolic activation: with S9, exposure time: 3-4 hours	0.26	1.06	103
concentration: 33.6 (µM), S9 metabolic activation: without S9, exposure time: 24 hours	0.52	1.78	103
concentration: 41.9 (µM), S9 metabolic activation: with S9, exposure time: 3-4 hours	0.2	1.24	106
concentration: 41.9 (µM), S9 metabolic activation: without S9, exposure time: 24 hours	0.72	1.86	102
concentration: 52.4 (µM), S9 metabolic activation: with S9, exposure time: 3-4 hours	0.32	0.86	116
concentration: 52.4 (µM), S9 metabolic activation: without S9, exposure time: 24 hours	0.62	1.66	103
concentration: 65.5 (µM), S9 metabolic activation: with S9, exposure time: 3-4 hours	0.12	0.96	98
concentration: 65.5 (µM), S9 metabolic activation: without S9, exposure time: 24 hours	0.8	1.74	99.7
concentration: 81.9 (µM), S9 metabolic activation: with S9, exposure time: 3-4 hours	0.14	1.32	138
concentration: 81.9 (µM), S9 metabolic activation: without S9, exposure time: 24 hours	0.88	1.48	102
concentration: 102 (µM), S9 metabolic activation: with S9, exposure time: 3-4 hours	0.34	1.46	123
concentration: 102 (µM), S9 metabolic activation: without S9, exposure time: 24 hours	0.68	1.6	91.4
concentration: 128 (µM), S9 metabolic activation: with S9, exposure time: 3-4 hours	0.24	1.46	93.4
concentration: 128 (µM), S9 metabolic activation: without S9, exposure time: 24 hours	1.02	2.16	98.2
concentration: 160 (µM), S9 metabolic activation: with S9, exposure time: 3-4 hours	0.34	1.32	127
concentration: 160 (µM), S9 metabolic activation: without S9, exposure time: 24 hours	0.98	2.2	89.8
concentration: 200 (µM), S9 metabolic activation: with S9, exposure time: 3-4 hours	0.4	1.66	111
concentration: 200 (µM), S9 metabolic activation: without S9, exposure time: 24 hours	1.3	2.84	95.2
